In PMC5892938:
This is one part of the list. At the low end of the ranking the order means little.

biological target: GST-SBP-SLBP (stem-loop binding protein) (UniProt Q14493); assay: targeted RNA Bind-n-Seq; settings: RBNS binding buffer: 25 mM Tris pH 7.5, 150 mM KCl, 3 mM MgCl2, 0.1% Tween, 0.5 mg/mL BSA, 1 mM DTT; 27 nM protein, 750 pM RNA pool; temperature not stated; high values mean tight binding;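 also: DESeq read counts versus GST-SBP nonspecific binding control pulldown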

| Sequence | binding signal (log2 fold change) |
| --- | --- |
| GGUCACGUCUCAAUCAACUCUAGUCCCAGGGAAACCCCUGGUUUUUUCAACAGCUCGCAGUCAAG | 0.0995 |
| GGUCACGUCUCAAUCAACUCAACUCCCAGGGAAAGCCCUGGUUUACUCAACAGCUCGCAGUCAAG | 0.136 |
| GGUCACGUCUCAAUCAACUCCCUCGAGGGGGGGAAAACCCCUUUACCCUCUAAUUCAACAGCUCGCAGUCAAG | -0.5 |
| GGUCACGUCUCAAUCAACUCAAGUCCAGGAGUUUCCUCCUGCAUAUUCAACAGCUCGCAGUCAAG | 0.199 |
| GGUCACGUCUCAAUCAACUCUACGCCAGGAGUUUUCUCCUGCUAUUUCAACAGCUCGCAGUCAAG | -0.191 |
| GGUCACGUCUCAAUCAACUCAACGGAGGGGGGGAAAACCCCUUUACCCUCAUCAUCAACAGCUCGCAGUCAAG | -0.36 |
| GGUCACGUCUCAAUCAACUCAUCGUCAGGAGUUUACUCCUGUUAUUUCAACAGCUCGCAGUCAAG | 0.0407 |
| GGUCACGUCUCAAUCAACUCAUUUUCCAGGGAAACCCCUGGCAUAUUCAACAGCUCGCAGUCAAG | -0.104 |
| GGUCACGUCUCAAUCAACUCAGUCUCAGGAGUUUGCUCCUGCAUUUUCAACAGCUCGCAGUCAAG | -0.19 |
| GGUCACGUCUCAAUCAACUCAACUUCAGGAGUUUCCUCCUGUAAAUUCAACAGCUCGCAGUCAAG | 0.0785 |
| GGUCACGUCUCAAUCAACUCAUCUCCCAGGGAAACCCCUGGUUUUCUCAACAGCUCGCAGUCAAG | -0.0846 |
| GGUCACGUCUCAAUCAACUCCCUAGAGGGGGGGAAAACCCCUUUACCCUCACAUUCAACAGCUCGCAGUCAAG | -0.201 |
| GGUCACGUCUCAAUCAACUCAGUCUCCAGGGAAAACCCUGGUUUAUUCAACAGCUCGCAGUCAAG | 0.0693 |
| GGUCACGUCUCAAUCAACUCUCAGGAGGGGGGGAAAACCCCUUUACCCUCACAUUCAACAGCUCGCAGUCAAG | 0.0989 |
| GGUCACGUCUCAAUCAACUCUUCUUCCAGGGAAAUCCCUGGCUAUGUCAACAGCUCGCAGUCAAG | -0.0381 |
| GGUCACGUCUCAAUCAACUCAAUUUCAGGAGUUUACUCCUGCAUAGUCAACAGCUCGCAGUCAAG | 0.0665 |
| GGUCACGUCUCAAUCAACUCAUUUUCCAGGGAAAACCCUGGCUAACUCAACAGCUCGCAGUCAAG | -0.0189 |
| GGUCACGUCUCAAUCAACUCAUCUUCCAGGGAAAACCCUGGCUUACUCAACAGCUCGCAGUCAAG | -0.0839 |
| GGUCACGUCUCAAUCAACUCACAAGAGGGGGGGAAAACCCCUUUACCCUCACAUUCAACAGCUCGCAGUCAAG | 0.0506 |
| GGUCACGUCUCAAUCAACUCAGUUUCAGGAGUUUUCUCCUGCUAUCUCAACAGCUCGCAGUCAAG | 0.0785 |
| GGUCACGUCUCAAUCAACUCUUCCUCAGGAGUUUCCUCCUGUUUUCUCAACAGCUCGCAGUCAAG | -0.0909 |
| GGUCACGUCUCAAUCAACUCAAGGUCAGGAGUUUUCUCCUGUAAAUUCAACAGCUCGCAGUCAAG | -0.0085 |
| GGUCACGUCUCAAUCAACUCCUUAGAGGGGGGGAAAACCCCUUUGCCCUCAUCGUCAACAGCUCGCAGUCAAG | -0.458 |
| GGUCACGUCUCAAUCAACUCAUCCCCCAGGGAAACCCCUGGUAUAUUCAACAGCUCGCAGUCAAG | -0.129 |

| Sequence | binding signal (log2 fold change) |
| --- | --- |
| GGUCACGUCUCAAUCAACUCAAUCCCAGGAGUUUGCUCCUGCUUACUCAACAGCUCGCAGUCAAG | 0.228 |
| GGUCACGUCUCAAUCAACUCAACUCCCAGGGAAAGCCCUGGCAUUUUCAACAGCUCGCAGUCAAG | 0.127 |
| GGUCACGUCUCAAUCAACUCUAUCCCCAGGGAAAACCCUGGCUAUCUCAACAGCUCGCAGUCAAG | 0.336 |
| GGUCACGUCUCAAUCAACUCUAUGUCCAGGGAAACCCCUGGUUUUUUCAACAGCUCGCAGUCAAG | -0.196 |
| GGUCACGUCUCAAUCAACUCAAUCUCAGGAGUUUGCUCCUGUAAUCUCAACAGCUCGCAGUCAAG | -0.0473 |
| GGUCACGUCUCAAUCAACUCAACUCCCAGGGAAACCCCUGGCAUAUUCAACAGCUCGCAGUCAAG | -0.000501 |
| GGUCACGUCUCAAUCAACUCAUUCCCAGGAGUUUACUCCUGCAUUUUCAACAGCUCGCAGUCAAG | -0.0691 |
| GGUCACGUCUCAAUCAACUCAAUCUCCAGGGAAAGCCCUGGCAAAGUCAACAGCUCGCAGUCAAG | 0.167 |
| GGUCACGUCUCAAUCAACUCUAUCCCAGGAGUUUUCUCCUGCAUUCUCAACAGCUCGCAGUCAAG | -0.0104 |
| GGUCACGUCUCAAUCAACUCAUUUCCAGGAGUUUCCUCCUGCAAUCUCAACAGCUCGCAGUCAAG | 0.0779 |
| GGUCACGUCUCAAUCAACUCAAUCUCCAGGGAAAUCCCUGGCUAUUUCAACAGCUCGCAGUCAAG | -0.109 |
| GGUCACGUCUCAAUCAACUCAUCCCCAGGAGUUUCCUCCUGUUUUUUCAACAGCUCGCAGUCAAG | -0.0869 |
| GGUCACGUCUCAAUCAACUCAAUCGCAGGAGUUUCCUCCUGGUUUCUCAACAGCUCGCAGUCAAG | 0.133 |
| GGUCACGUCUCAAUCAACUCAAUUUCCAGGGAAACCCCUGGCUUAUUCAACAGCUCGCAGUCAAG | -0.246 |
| GGUCACGUCUCAAUCAACUCUUCGGAGGGGGGGAAAACCCCUUUACCCUCAUUCUCAACAGCUCGCAGUCAAG | -0.425 |
| GGUCACGUCUCAAUCAACUCUUCGUCCAGGGAAAACCCUGGCUUUUUCAACAGCUCGCAGUCAAG | -0.102 |
| GGUCACGUCUCAAUCAACUCAACUUCCAGGGAAAACCCUGGCAAUCUCAACAGCUCGCAGUCAAG | -0.139 |
| GGUCACGUCUCAAUCAACUCUACUCCAGGAGUUUCCUCCUGUUUUUUCAACAGCUCGCAGUCAAG | -0.129 |
| GGUCACGUCUCAAUCAACUCAACUCCCAGGGAAAUCCCUGGUUAAUUCAACAGCUCGCAGUCAAG | 0.133 |
| GGUCACGUCUCAAUCAACUCAACUCCCAGGGAAACCCCUGGCUAACUCAACAGCUCGCAGUCAAG | -0.0607 |
| GGUCACGUCUCAAUCAACUCUUCGUCCAGGGAAAACCCUGGUUUUCUCAACAGCUCGCAGUCAAG | 0.335 |
| GGUCACGUCUCAAUCAACUCUUCAGAGGGGGGGAAAACCCCUUUGCCCUCAAUCUCAACAGCUCGCAGUCAAG | -0.526 |
| GGUCACGUCUCAAUCAACUCCUCAGAGGGGGGGAAAACCCCUUUACCCUCACCUUCAACAGCUCGCAGUCAAG | -0.104 |
